# Results as given in the supplement of paper PMC8728848.
# The other results are listed elsewhere or left out.
# Key:
# Assay in all cases: glycan array binding signal (z-score within array); higher = stronger binding
# Conditions in all cases: glycan notation: IUPAC condensed, linker removed; mutation: N224Q
# [1] = target: Neu5Ac(a2-3)Gal6S(b1-4)[Fuc(a1-3)]GlcNAc
# Procedure, shortened: (§1)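 The binding signal is a Z-score computed within each array and averaged over linkers. Arrays of the same protein sequence at different concentrations or buffers were also averaged together. Data originate from 3228 arrays in the Consortium for Functional Glycomics database, kept only where the protein sequence was available.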
# Neu5Ac(a2-3)GalNAc = target: Neu5Ac(a2-3)GalNAc
# Procedure, shortened: as §1
# [2] = target: Neu5Ac(a2-3)GalNAc(b1-4)GlcNAc
# Procedure, shortened: as §1
# [3] = target: Neu5Ac(a2-3)[GalNAc(b1-4)]Gal(b1-4)Glc
# Procedure, shortened: as §1
# [4] = target: Neu5Ac(a2-3)[GalNAc(b1-4)]Gal(b1-4)GlcNAc
# Procedure, shortened: as §1
# [5] = target: Neu5Ac(a2-3)[GalNAc(b1-4)]Gal(b1-4)GlcNAc(b1-3)GalNAc
# Procedure, shortened: as §1
# [6] = target: Neu5Ac(a2-3)[Neu5Ac(a2-6)]GalNAc
# Procedure, shortened: as §1
# Neu5Ac(a2-6)Gal = target: Neu5Ac(a2-6)Gal
# Procedure, shortened: as §1
# [7] = target: Neu5Ac(a2-6)Gal(b1-3)GlcNAc(b1-3)[Gal(b1-4)GlcNAc(b1-6)]Gal(b1-4)Glc
# Procedure, shortened: as §1
# Neu5Ac(a2-6)Gal(b1-4)Glc = target: Neu5Ac(a2-6)Gal(b1-4)Glc
# Procedure, shortened: as §1
# [8] = target: Neu5Ac(a2-6)Gal(b1-4)GlcNAc
# Procedure, shortened: as §1
# [9] = target: Neu5Ac(a2-6)Gal(b1-4)GlcNAc(b1-2)Man
# Procedure, shortened: as §1
# [10] = target: Neu5Ac(a2-6)Gal(b1-4)GlcNAc(b1-2)Man(a1-3)Man(b1-4)GlcNAc(b1-4)GlcNAc
# Procedure, shortened: as §1
# [11] = target: Neu5Ac(a2-6)Gal(b1-4)GlcNAc(b1-2)Man(a1-3)[Gal(b1-4)GlcNAc(b1-2)Man(a1-6)]Man(b1-4)GlcNAc(b1-4)GlcNAc
# Procedure, shortened: as §1
# [12] = target: Neu5Ac(a2-6)Gal(b1-4)GlcNAc(b1-2)Man(a1-3)[GlcNAc(b1-4)][Neu5Ac(a2-6)Gal(b1-4)GlcNAc(b1-2)Man(a1-6)]Man(b1-4)GlcNAc(b1-4)GlcNAc
# Procedure, shortened: as §1
# [13] = target: Neu5Ac(a2-6)Gal(b1-4)GlcNAc(b1-2)Man(a1-3)[Man(a1-6)]Man(b1-4)GlcNAc(b1-4)GlcNAc
# Procedure, shortened: as §1
# [14] = target: Neu5Ac(a2-6)Gal(b1-4)GlcNAc(b1-2)Man(a1-3)[Neu5Ac(a2-3)Gal(b1-4)GlcNAc(b1-2)Man(a1-6)]Man(b1-4)GlcNAc(b1-4)GlcNAc
# Procedure, shortened: as §1
# [15] = target: Neu5Ac(a2-6)Gal(b1-4)GlcNAc(b1-2)Man(a1-3)[Neu5Ac(a2-6)Gal(b1-4)GlcNAc(b1-2)Man(a1-6)]Man(b1-4)GlcNAc(b1-4)GlcNAc
# Procedure, shortened: as §1
# [16] = target: Neu5Ac(a2-6)Gal(b1-4)GlcNAc(b1-2)Man(a1-3)[Neu5Ac(a2-6)Gal(b1-4)GlcNAc(b1-2)Man(a1-6)]Man(b1-4)GlcNAc(b1-4)[Fuc(a1-6)]GlcNAc
# Procedure, shortened: as §1
# [17] = target: Neu5Ac(a2-6)Gal(b1-4)GlcNAc(b1-2)Man(a1-6)Man(b1-4)GlcNAc(b1-4)GlcNAc
# Procedure, shortened: as §1
# [18] = target: Neu5Ac(a2-6)Gal(b1-4)GlcNAc(b1-2)Man(a1-6)[Gal(b1-4)GlcNAc(b1-2)Man(a1-3)]Man(b1-4)GlcNAc(b1-4)GlcNAc
# Procedure, shortened: as §1
# [19] = target: Neu5Ac(a2-6)Gal(b1-4)GlcNAc(b1-2)Man(a1-6)[GlcNAc(b1-2)Man(a1-3)]Man(b1-4)GlcNAc(b1-4)GlcNAc
# Procedure, shortened: as §1
# [20] = target: Neu5Ac(a2-6)Gal(b1-4)GlcNAc(b1-2)Man(a1-6)[Man(a1-3)]Man(b1-4)GlcNAc(b1-4)GlcNAc
# Procedure, shortened: as §1
# [21] = target: Neu5Ac(a2-6)Gal(b1-4)GlcNAc(b1-2)[Neu5Ac(a2-6)Gal(b1-4)GlcNAc(b1-4)]Man(a1-3)[GlcNAc(b1-4)][Neu5Ac(a2-6)Gal(b1-4)GlcNAc(b1-2)[Neu5Ac(a2-6)Gal(b1-4)GlcNAc(b1-6)]Man(a1-6)]Man(b1-4)GlcNAc(b1-4)GlcNAc
# Procedure, shortened: as §1
# [22] = target: Neu5Ac(a2-6)Gal(b1-4)GlcNAc(b1-2)[Neu5Ac(a2-6)Gal(b1-4)GlcNAc(b1-4)]Man(a1-3)[GlcNAc(b1-4)][Neu5Ac(a2-6)Gal(b1-4)GlcNAc(b1-4)Man(a1-6)]Man(b1-4)GlcNAc(b1-4)GlcNAc
# Procedure, shortened: as §1
# [23] = target: Neu5Ac(a2-6)Gal(b1-4)GlcNAc(b1-2)[Neu5Ac(a2-6)Gal(b1-4)GlcNAc(b1-6)]Man(a1-6)[Neu5Ac(a2-6)Gal(b1-4)GlcNAc(b1-2)Man(a1-3)][GlcNAc(b1-4)]Man(b1-4)GlcNAc(b1-4)GlcNAc
# Procedure, shortened: as §1
# [24] = target: Neu5Ac(a2-6)Gal(b1-4)GlcNAc(b1-3)Gal(b1-3)GlcNAc
# Procedure, shortened: as §1
# [25] = target: Neu5Ac(a2-6)Gal(b1-4)GlcNAc(b1-3)Gal(b1-4)GlcNAc
# Procedure, shortened: as §1
# [26] = target: Neu5Ac(a2-6)Gal(b1-4)GlcNAc(b1-3)Gal(b1-4)GlcNAc(b1-2)Man(a1-3)[Neu5Ac(a2-6)Gal(b1-4)GlcNAc(b1-3)Gal(b1-4)GlcNAc(b1-2)Man(a1-6)]GalNAc
# Procedure, shortened: as §1
# [27] = target: Neu5Ac(a2-6)Gal(b1-4)GlcNAc(b1-3)Gal(b1-4)GlcNAc(b1-3)Gal(b1-4)GlcNAc
# Procedure, shortened: as §1
# [28] = target: Neu5Ac(a2-6)Gal(b1-4)GlcNAc(b1-3)Gal(b1-4)GlcNAc(b1-3)Gal(b1-4)GlcNAc(b1-2)Man(a1-3)[Neu5Ac(a2-6)Gal(b1-4)GlcNAc(b1-3)Gal(b1-4)GlcNAc(b1-3)Gal(b1-4)GlcNAc(b1-2)Man(a1-6)]GalNAc
# Procedure, shortened: as §1
# [29] = target: Neu5Ac(a2-6)Gal(b1-4)GlcNAc(b1-3)Gal(b1-4)GlcNAc(b1-3)GalNAc
# Procedure, shortened: as §1
# [30] = target: Neu5Ac(a2-6)Gal(b1-4)GlcNAc(b1-3)Gal(b1-4)GlcNAc(b1-3)[Neu5Ac(a2-6)Gal(b1-4)GlcNAc(b1-3)Gal(b1-4)GlcNAc(b1-6)]GalNAc
# Procedure, shortened: as §1
# [31] = target: Neu5Ac(a2-6)Gal(b1-4)GlcNAc(b1-3)Gal(b1-4)GlcNAc(b1-6)[Gal(b1-3)]GalNAc
# Procedure, shortened: as §1
# [32] = target: Neu5Ac(a2-6)Gal(b1-4)GlcNAc(b1-3)Gal(b1-4)[Fuc(a1-3)]GlcNAc(b1-3)Gal(b1-4)[Fuc(a1-3)]GlcNAc
# Procedure, shortened: as §1
# [33] = target: Neu5Ac(a2-6)Gal(b1-4)GlcNAc(b1-3)GalNAc
# Procedure, shortened: as §1
# [34] = target: Neu5Ac(a2-6)Gal(b1-4)GlcNAc(b1-3)[Neu5Ac(a2-6)Gal(b1-4)GlcNAc(b1-6)]GalNAc
# Procedure, shortened: as §1
binder,measurement,setting,value
AAL (Aleuria aurantia) (protein) MPTEFLYTSKIAAISWAATGGRQQRVYFQDLNGKIREAQRGGDNPWTGGSSQNVIGEAKLFSPLAAVTWKSAQGIQIRVYCVNKDNILSEFVYDGSKWITGQLGSVGVKVGSNSKLAALQWGGSESAPPNIRVYYQKSNGSGSSIHEYVWSGKWTAGASFGSTVPGTGIGATAIGPGRLRIYYQATDNKIREHCWDSNSWYVGGFSASASAGVSIAAISWGSTPQIRVYWQKGREELYEAAYGGSWNTPGQIKDASRPTPSLPDTFIAANSSGNIDISVFFQASGVSLQQWQWISGKGWSIGAVVPTGTPAGW,glycan array binding signal (z-score),[1],1.22
same,glycan array binding signal (z-score),Neu5Ac(a2-3)GalNAc,-0.294
same,glycan array binding signal (z-score),[2],-0.326
same,glycan array binding signal (z-score),[3],-0.32
same,glycan array binding signal (z-score),[4],-0.323
same,glycan array binding signal (z-score),[5],-0.298
same,glycan array binding signal (z-score),[6],-0.286
same,glycan array binding signal (z-score),Neu5Ac(a2-6)Gal,-0.314
same,glycan array binding signal (z-score),[7],-0.321
same,glycan array binding signal (z-score),Neu5Ac(a2-6)Gal(b1-4)Glc,-0.319
same,glycan array binding signal (z-score),[8],-0.328
same,glycan array binding signal (z-score),[9],-0.272
same,glycan array binding signal (z-score),[10],-0.315
same,glycan array binding signal (z-score),[11],-0.272
same,glycan array binding signal (z-score),[12],-0.311
same,glycan array binding signal (z-score),[13],-0.318
same,glycan array binding signal (z-score),[14],-0.315
same,glycan array binding signal (z-score),[15],-0.305
same,glycan array binding signal (z-score),[16],1.76
same,glycan array binding signal (z-score),[17],-0.316
same,glycan array binding signal (z-score),[18],-0.318
same,glycan array binding signal (z-score),[19],-0.327
same,glycan array binding signal (z-score),[20],-0.31
same,glycan array binding signal (z-score),[21],-0.299
same,glycan array binding signal (z-score),[22],-0.318
same,glycan array binding signal (z-score),[23],-0.303
same,glycan array binding signal (z-score),[24],-0.324
same,glycan array binding signal (z-score),[25],-0.324
same,glycan array binding signal (z-score),[26],-0.277
same,glycan array binding signal (z-score),[27],-0.32
same,glycan array binding signal (z-score),[28],-0.085
same,glycan array binding signal (z-score),[29],-0.309
same,glycan array binding signal (z-score),[30],-0.209
same,glycan array binding signal (z-score),[31],-0.302
same,glycan array binding signal (z-score),[32],-0.195
same,glycan array binding signal (z-score),[33],-0.305
same,glycan array binding signal (z-score),[34],-0.313
